Whole data set: some 33,000 sequences, median “E-score (-0.5 to 0.5)” near -0.016, cut for the highest 2% near 0.32. Some of the results follow.

The test addresses T1, Stp1 (UniProt B3LFK1).
T1 sequence: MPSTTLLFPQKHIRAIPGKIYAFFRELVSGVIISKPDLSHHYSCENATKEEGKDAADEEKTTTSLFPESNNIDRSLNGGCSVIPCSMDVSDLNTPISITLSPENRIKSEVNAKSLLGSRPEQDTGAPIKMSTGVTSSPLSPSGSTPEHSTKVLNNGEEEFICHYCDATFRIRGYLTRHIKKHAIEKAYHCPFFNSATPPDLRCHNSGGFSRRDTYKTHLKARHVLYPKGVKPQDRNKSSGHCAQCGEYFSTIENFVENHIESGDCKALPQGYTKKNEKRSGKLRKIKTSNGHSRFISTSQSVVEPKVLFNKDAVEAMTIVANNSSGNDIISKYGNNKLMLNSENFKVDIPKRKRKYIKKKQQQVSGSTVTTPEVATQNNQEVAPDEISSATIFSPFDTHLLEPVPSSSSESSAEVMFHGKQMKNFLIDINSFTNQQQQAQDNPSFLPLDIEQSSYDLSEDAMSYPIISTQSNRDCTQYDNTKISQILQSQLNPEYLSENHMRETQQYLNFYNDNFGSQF
Kind of test: PBM E-score (8-mer binding enrichment) (E-score (-0.5 to 0.5)); higher = stronger / more preferred TF binding; most listed sequences are background and not binding sites. The following applies: protein concentration: 200 nM; construct: GST-full length. As for the experimental part: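 Universal 'all 10-mer' protein binding microarrays (Agilent AMADID 015681) probed with GST-tagged S. cerevisiae TFs (full-length or DBD) made by in vitro transcription/translation (PURExpress), about 100-200 nM. Bound TF was detected with fluorescent anti-GST. Each ungapped 8-mer (which stands for itself and its reverse complement) is scored by the PBM enrichment score (E-score), a modified Wilcoxon-Mann-Whitney statistic from -0.5 to +0.5, computed with the Universal PBM Analysis Suite. Scale: above 0.35 generally sequence-specific binding.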
For the sequence CGTCAAGC, the “PBM E-score” value is -0.0973.

Turning to GTCCGTGA, the “PBM E-score” value is -0.00593.

As for CACTCTGC, the “PBM E-score” value was -0.129.

Consider CGGGGGCC, for which the “PBM E-score” value was -0.3.

Turning to GGTCGGTA, the “PBM E-score” value is -0.0473.

Take AGACTGAT: the “PBM E-score” value is -0.0452.

For the sequence GATGCACC, the “PBM E-score” value is -0.0503.

Turning to AGGACTAG, the “PBM E-score” value was -0.167.

Consider CTAACCAC, for which the “PBM E-score” value came out at 0.0781.

On to ACTGCTTC, for which the “PBM E-score” value was -0.207.

Regarding CGTTTGTC, the “PBM E-score” value is 0.144.

For the sequence GATTGCCC, the “PBM E-score” value is -0.0886.

Consider AACACCAA, for which the “PBM E-score” value is 0.0246.

For AGTACAAG, the “PBM E-score” value was -0.037.

Consider ATACAACG, for which the “PBM E-score” value was found to be 0.0808.

On to ATCATTTC, for which the “PBM E-score” value is 0.0949.

For the sequence ACCGAGCG, the “PBM E-score” value stood at 0.114.

Take CTAAAACC: the “PBM E-score” value turned out to be 0.0673.

Take CGGCCTAG: the “PBM E-score” value was -0.183.

As to ACTACTCA, the “PBM E-score” value stood at 0.14.

Regarding ACGTACGT, the “PBM E-score” value was -0.00852.

As to AAAGGCAC, the “PBM E-score” value is 0.392.

As for CGCGTCGA, the “PBM E-score” value came out at 0.15.

In the case of ACAGCACG, the “PBM E-score” value came to 0.0746.

For the sequence CGTTCCAC, the “PBM E-score” value came out at 0.00117.

Take TAGTCCAA: the “PBM E-score” value is -0.079.

As for AGGCCTGG, the “PBM E-score” value is -0.349.

Turning to ACACAGCG, the “PBM E-score” value was found to be 0.262.

In the case of TCCGTGCA, the “PBM E-score” value was found to be 0.258.

GTGATGGA: the “PBM E-score” value was -0.212.

With ATTAAAGA, the “PBM E-score” value turned out to be 0.156.

As to ATGTTTGC, the “PBM E-score” value is -0.134.

As to TCGTTCCA, the “PBM E-score” value is -0.0826.

For AGTACTGG, the “PBM E-score” value was -0.188.

With ACATCGTA, the “PBM E-score” value was 0.0549.

With ACATACGA, the “PBM E-score” value worked out at 0.206.

On to CAAGCCAA, for which the “PBM E-score” value came out at 0.082.

Take GAGTAGCA: the “PBM E-score” value was -0.0825.

With CAGACTAC, the “PBM E-score” value worked out at 0.0144.

On to CTTAATTA, for which the “PBM E-score” value is 0.039.

On to CAACCTTA, for which the “PBM E-score” value was -0.0202.

Turning to ATAGACTC, the “PBM E-score” value was -0.314.

In the case of ATCATAAA, the “PBM E-score” value was 0.105.

In the case of GGAATAAA, the “PBM E-score” value came out at 0.075.

In the case of CGGACCTA, the “PBM E-score” value is -0.0968.

Take GGGTCCAA: the “PBM E-score” value is -0.219.

Take TAAGTACA: the “PBM E-score” value was found to be 0.0848.

On to ATTTAATC, for which the “PBM E-score” value is 0.148.

Regarding CCAAGTTA, the “PBM E-score” value is -0.0429.

Turning to TTCCGAAA, the “PBM E-score” value was -0.0464.

Regarding GGTCCGTA, the “PBM E-score” value is 0.0291.

Turning to CAGGAATA, the “PBM E-score” value was -0.0333.

Take ACACTCCC: the “PBM E-score” value was -0.223.

As to CATTTTCA, the “PBM E-score” value came to 0.142.

With CGGACGCC, the “PBM E-score” value stood at 0.185.

For the sequence ACATCCGG, the “PBM E-score” value was -0.202.

With GCTTGGGA, the “PBM E-score” value was -0.0458.

Consider ACAGCGTC, for which the “PBM E-score” value is -0.105.

CACTGGAG: the “PBM E-score” value is -0.156.

With AGGAGCCT, the “PBM E-score” value is -0.0891.

As to ATCAGCAG, the “PBM E-score” value stood at 0.0401.

Turning to AATGGCCT, the “PBM E-score” value came to 0.106.

For the sequence GGATGGAA, the “PBM E-score” value was -0.132.

Regarding CGTCTGAA, the “PBM E-score” value is -0.0304.

Regarding GGTAAAGA, the “PBM E-score” value came to 0.13.

Consider CTGTACCC, for which the “PBM E-score” value was -0.13.

As for ATTAAATG, the “PBM E-score” value turned out to be 0.0917.

With AATGAGTA, the “PBM E-score” value worked out at 0.0887.

Take GCGGTGCA: the “PBM E-score” value was found to be 0.0253.

Regarding ATAGCCAA, the “PBM E-score” value was -0.0158.

With AATTTTAA, the “PBM E-score” value came to 0.183.

As to GGTTCGCA, the “PBM E-score” value is -0.149.

For CTGGCTTA, the “PBM E-score” value is -0.194.

As to AACTGGGT, the “PBM E-score” value is -0.116.

With ACGATTTG, the “PBM E-score” value was found to be 0.124.

As for CTATTAGC, the “PBM E-score” value was found to be 0.203.

As for ACCTTCCG, the “PBM E-score” value was -0.0752.

For AAATGCCC, the “PBM E-score” value was -0.108.

On to CAGTGATA, for which the “PBM E-score” value is -0.0612.

With AATTTAAG, the “PBM E-score” value came out at 0.0361.

For AATTCCAG, the “PBM E-score” value came to 0.0141.

In the case of CATCCTCA, the “PBM E-score” value was -0.0408.

Consider GCCGGTAC, for which the “PBM E-score” value was -0.0677.

Regarding AAGAGAGA, the “PBM E-score” value is -0.129.

GCGCATCC: the “PBM E-score” value amounted to 0.0373.

Take GTATACAA: the “PBM E-score” value worked out at 0.0557.

Values taken from the supplement of paper PMC3334620.
